Test results: the RNAGym collection of RNA variant scans (doi:10.7554/elife.90254)
Read counts are not given, so values of variants with three or more changes are uncertain.

B1: OR4K15 (parent)
chain: GUUAACGGUCAUAGGCCAUGGAAACUAGGAGCACCAUUUCGCUGCCAGUGAAGAAAUGAACAAAGAAAAUCUGGGCCAGGCAGGCAUCAAAAGAAAUAGUCUUGCGCUCAACCAGAAAGUCUGUAAUCAUUUUAAGGGUA

Variants of: B1
Assay: self-cleavage, relative activity (ratio to wild type); higher = more cleavage; in vitro, sequencing; the parent is a self-cleaving ribozyme

Variant | self-cleavage
U12A U39C A54G C107A A111G | 0.04
A13C G44A A64U | 1.6
U12C A13G A33U A51G A54G U108C U122A | 0
U12C A89U A111U A118U | 0.01
U12A U87G A96G A117G | 1.15
A11U A52C A140G | 0.46
U12C A13G A64U C77U A111G | 0.1
A13G A27G G75C A82G A114G | 0.12
U12C A33G A36G A68G A111G | 0.02
A11U A64G U70C A90G A129G | 0.26
U12C A18G A78U | 0.31
U12C U57A A78G A89G | 0.29
U12C U108C U127C | 0
A11U U49C A95G C121A | 2.96
A13G U37C A55G U124A | 0.65
A13G A60U U72A U100A | 0.38
U12C C61U U131C | 1.22
A11U U70A U100C U130C | 0.84
U12C A23G A82U U122C | 0.04
U12C U38C A52G U72A | 0.36
U12A U39A U122C | 1.49
U12A U38A C46U A52G | 0.48
A13G C32U U43A A47U C113U A118G | 0.18
A11U C17U U131C U133C | 1.5

Variant | self-cleavage
U12A U19C G41U G74C | 0.5
A13G A18G A55G | 0.55
U12C G41A U57C A111G U122A | 0.01
A13G A52G A67G A89G | 0.86
A11U A68G A118U | 0.7
U12C G14A U87A A134G | 0.9
U12G A23C A94G | 0.55
A11U C45U A55U A60G A64G A69G U131C | 0.9
U12A U39A A60G C85U | 0.96
U12G A89G U130C U131C | 0.97
A11U A27G U37C | 1.83
U12A A23U A51U | 1.32
A13G A24G C32A A118G | 0.53
U12A A22U A82G | 0.72
A11U U38C U57A U72C A89G | 0.28
A11U G15U U39A A55G A56G A64G | 0.87
U12C G14U C17U | 0.66
A13G A47G A62G A68G | 0.42
A11U A23G A47U A62G U127C | 0.21
U12C U37C A94G U108C | 0.07
U12C A22G U37C G83A | 0.82
U12C A22U A47G A66G U103C | 0.32
U12A U57A A82C U103C | 0.1
A13G U19C A82G A95G A111G | 0.13

Variant | self-cleavage
U12C A82U U139A | 0.24
A13G A51G A69G | 1.27
A13G A33G A60G A78G A82G | 0.33
U12G A24G U38G C107A A117G | 0
A11U A68G C88A U122C U130C | 2.39
U12C U87C A116G | 0.61
A11U C76A U127C | 0.15
A11U A24G C40U A47C A52G A62G A66G A68G | 1
A11U A18G U37C A52G A60G A63G A66G A90G | 0.83
U12A U38G C42U U57C A63G | 0.19
U12C A22U A56G U57A U100A A116G | 0.1
A13C A22G A60G A67G | 1.12
A11U A23G A54G | 0.99
A13G A18G A66G | 1.67
U12A A47U A55G U127C | 0.44
U12C U37C A62U U103C U122C | 0.3
U12C A24G A116G U122C | 0.74
A11U A30G A52G A59G U102A | 1.56
U12A A52G U87C | 1.1
U12C A55G U70C A78C A91G A125C | 0.13
U12G U87C A90G U100C | 1.9
U12C U39C A68G A94G A110G | 0.16
U12C U72A U108C | 0.04
A11G U100C U120C U132C | 2.11

Variant | self-cleavage
A11U U43C G79A A117U | 0.04
A13G A54G A59G A66G U87A U124C A129G | 0.45
A13G A52G A78U A91G A116G U130C | 0.04
A13G A111C U132C | 0.02
U12C A52G A90G | 1.35
U12A U19C A22G A66C A114C | 0
U12C A36U A89G | 1.04
A13G A51G A55U U72A | 0.57
A13G A22U A33U U43C A69G A82U A117G U130C | 0.18
A13G A51G A68G A86U A135G | 0.76
A11U A52U A118G U124A | 0.31
U12C A23G A55U G106A U122C | 0.01
A11U G48U A51G | 1.11
A13G U37C A54G A59G A62G A68G A86G A116G G119C | 0.47
A13G G21U A59G A68G U108C G136A | 0.05
U12C A67G A69G A91G A126G | 0.98
A11U U72A A86G C107A | 0.02
A13G A63U A86G | 1.02
U12C A24G U122C | 0.5
A13G U39A A90G | 1.1
U12C U39C U103C | 0.96
A13C A94G A125G | 0.43
A13G A18G U39C A116G | 0.88
U12C A111G G115A | 0

Variant | self-cleavage
U12C A67U G74A C105U | 0.08
A13G A54G G104A | 0.13
A13G G21A U43C | 0.75
A13G A68G A117G | 0.48
U12C U38G U39C U103C | 0.91
U12C U87C A111G | 0.04
A11U A56G A69G A135G | 0.62
U12C A59G A62G U124C | 0.34
A11U A56G A91G | 0.51
U12G A96U A118G | 0.85
U12G A47U A62U A90G A117U U139A | 0.51
U12A A54G A60G | 1.27
U12C U49C U122C | 0.74
A13G A98G U100C | 0.8
U12C G93A U130C | 1.43
U12C A23G A66G A118G | 0.63
U12A A27G A33G A67G U127C | 0.63
U12C A54G C101A U124C | 0.12
A13G U38A A90G A95G U139C | 1.64
A13G A89U C113U | 0.13
A13G U43C U70C A110U | 0.6
A13G A54U A55G U127A | 1.36
A11U U57C A62G | 0.65
A11G U100C A110G | 0.23

Variant | self-cleavage
U12C A54G A94G U139C | 0.85
U12C A125G A126G | 0.22
U12A A126G C128U | 0.39
A11U G44A U70A A118C | 0.39
A13C A92G A114C | 0.1
A13G U19C A59G A110G | 0.18
A11U A24G A51U U72C A134G | 0.15
U12C A24G U39C G84U | 0.45
A13G U26G A55C G79A | 0.08
A13C U19C A33U A60G A90U | 1.37
A13G A63U A86G A92G A116U | 0.53
A13G A56G A59U A91G U100C A117U | 0
A11G U97C A118G U120C A135U | 0.06
U12C A86G A95G U108C U131A | 0.03
A11U A55G A56G U130C | 0.7
U12A A59G A68G A69U A96G | 1.05
A13G A52U A96U | 1.5
A13G A69G A78U U87C | 0.3
U12C A13G A96G | 0.98
A13G G28A U38A A94G | 1.79
A11U A67G U102C U122C | 0.88
U12A U37C A59G A134G | 0.86
U12C A94G U132C | 1.86
A11U U108C A114G U122C | 0.01

Variant | self-cleavage
U12C A24G A90C | 1.72
A13G A47U C101U U122G | 0.45
A11G U102A U130C | 0.53
A13G A54G A89G | 0.83
A11U A69G G73A | 0.3
U12C U39A A68U | 0.54
A11U U87C A129G | 0.28
U12A U57C A111G | 0.04
U12C A23U U39C G73A | 0.19
U12C A59G A63G A94G A111G | 0.03
A13G U43C A118U A125G | 0.49
U12C A56G U100C U103C A116G A134G | 1.23
A13G A36G A98G A116G | 0.26
A11G U102C U103A | 0.14
A13G A59U A68G | 0.64
A11U A22U A30G U70C | 1.2
A11U A92G A114U A140G | 0.02
A11U U122C U139C | 1.17
U12A A18G A23U A78G U127C | 0.13
U12A A56G A111G | 0
A11U A94G U103C A117G A118G U131C | 0.61
A11U A78U A98U | 0.32
A13G A96G U127C | 0.77
